Among the data in PubChem BioAssay AID1240 (Sanford-Burnham Center for Chemical Genomics, 2008) are displacement values, retold here.

Out of some 50,000 compounds screened, about 800 (1.6%) showed an effect of 50% or more. This is one part of the list.

This test has as its target Bcl-2-like protein 10 (Homo sapiens) (UniProt Q9HD36). As to the kind of experiment: Phenotype converters, Bcl-B/TR3 peptide binding displacement, primary biochemical FP (AID 1240).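 Note: 0% = Bcl-B with tracer peptide and DMSO and 100% = tracer peptide lacking Bcl-B.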 The conditions noted are these: GST-Bcl-B / FITC-TR3 peptide fluorescence polarization; stronger effect = higher value; compound at 3.75 mg/L.
Sequence of UniProt Q9HD36 (Q9HD36 whole entry, looked up): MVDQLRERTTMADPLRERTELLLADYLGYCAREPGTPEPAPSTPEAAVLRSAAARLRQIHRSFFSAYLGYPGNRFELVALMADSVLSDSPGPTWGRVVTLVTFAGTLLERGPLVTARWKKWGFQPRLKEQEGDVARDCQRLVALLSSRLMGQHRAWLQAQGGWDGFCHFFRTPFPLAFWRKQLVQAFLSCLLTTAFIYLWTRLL
Turning to `O=C(N/N=C/c1ccco1)c1cc(-c2cccc([N+](=O)[O-])c2)n[nH]1`, the displacement is -11.9%. On to `COc1ccc(N2C(=O)C(Cl)=C(Nc3ccc(OC)cc3OC)C2=O)cc1`, for which the displacement worked out at 15.4%. With `Cc1nn(CC(=O)N2CCCCC2)c(=O)c2ccccc12`, the displacement was 5.4%. On to `Cc1ccc(S(=O)(=O)N2CCC(C(=O)O)CC2)cc1`, for which the displacement is 15.4%.

For `Oc1ccc(/C=N/N=C/c2ccc(O)c(O)c2)cc1O`, the displacement was -6.7%. Consider `Cc1ccc(C2=NN3C(C2)c2ccccc2OC3c2ccc(O)cc2)cc1` (stereo not drawn), for which the displacement came to 4.2%. With `O=[N+]([O-])c1cccc(-c2noc(-c3ccccc3Cl)n2)c1`, the displacement was 22.6%. On to `O=C1CC(NCc2ccncc2)C(=O)N1c1ccc(I)cc1` (stereo not drawn), for which the displacement is -12%. Turning to `CSc1nc(SC)c2c3c(sc2n1)COC(C)(C)C3`, the displacement was determined as 38%.

Turning to `COc1ccc(CN2CCN(S(C)(=O)=O)CC2)cc1OCc1ccccc1`, the displacement was found to be 0.9%. Regarding `O=C(c1ccco1)N1CCN(Cc2ccccc2Cl)CC1`, the displacement is -0.7%.

Turning to `CCN(Cc1ccccc1)C(=O)c1ccc([N+](=O)[O-])cc1`, the displacement stood at 11.6%.

Consider `Cc1cc(=O)oc2c1ccc1oc(/C(=N\O)c3ccc(Cl)cc3)c(C)c12`, for which the displacement was 15.2%. As to `CCOC(=O)c1c(NC(=O)c2ccc(OC)cc2OC)sc2c1CCCCC2`, the displacement was -5.3%. As to `CC(=O)c1ccc(NC(=O)CSc2nc(C)cc(=O)[nH]2)cc1`, the displacement is 9.8%. With `C=CCn1c(CCN2C(=O)c3cccc4cccc(c34)C2=O)n[nH]c1=S`, the displacement was -8%. Turning to `CCOc1ccc(Nc2nc(-c3sc(NC(=O)CC)nc3C)cs2)cc1`, the displacement was determined as 8.7%.

`Cc1ccc(OCCOc2ccc(Cl)cc2/C=N/n2cnnc2)cc1`: the displacement is -3.6%. The value for `N#C/C(=C/c1ccc(I)o1)C(=O)N1CCOCC1` was -0.4%; that for `O=C(NCCCN1CCOCC1)/C(=C/c1cccc(Oc2ccccc2)c1)NC(=O)c1ccccc1` was 12.2%; that for `Cc1ccc(Cl)cc1NC(=O)c1cccnc1` was 7.9%. The value for `COc1cc([N+](=O)[O-])ccc1NC(=O)c1cc(-c2ccccc2)nc2ccccc12` was 2.7%. Regarding `C/C(CC(=O)NC12CC3CC(CC(C3)C1)C2)=N\NC(=O)c1ccccc1I`, the displacement is -6.8%. Take `Cc1ccc(Cc2cnc(NC(=O)/C=C/c3ccc(C)o3)s2)cc1`: the displacement was found to be 17.1%. The value for `CC1=C(C(=O)OCCc2ccccc2)C(c2ccccc2Br)CC(=O)N1` (stereo not drawn) was -13.6%; that for `Cc1ccc(N2C(=O)c3cccnc3C2=O)cc1C` was 3.9%; that for `CCOc1ccc(NC(=O)CN(c2ccc(OC)cc2OC)S(=O)(=O)c2ccc(C)cc2)cc1` was -0.7%. `O=C(NCc1ccccc1Cl)c1cccc(I)c1`: the displacement was determined as 11.7%. With `Cc1c(-c2ccc(Cl)cc2)nc2ccccc2c1C(=O)Nc1ccc(F)cc1F`, the displacement was -9.1%.

As to `COC(=O)CN(c1ccc(C)c(C)c1)S(C)(=O)=O`, the displacement came to 9.5%.

Consider `Cc1cccc(N2C(=O)NC(=O)/C(=C\c3ccc(O)c(Cl)c3)C2=O)c1`, for which the displacement was 1.9%. `COC(=O)C1=C(C(=O)OC)SC(=C2C(=S)C(C)(C)N(C(=O)c3cccc(C)c3)c3cc(OC)ccc32)S1`: the displacement is -7.2%.

For `COc1ccccc1CNS(=O)(=O)c1ccc(C)c([N+](=O)[O-])c1`, the displacement was -5.3%. As for `CCOC(=O)c1c(C)nc(-c2ccccc2)nc1NC(=O)CC`, the displacement was -23.9%. The value for `O=C(O)CC(CC(=O)O)c1ccccc1[N+](=O)[O-]` was -17.9%. For `O=C(Nc1ccc2c(c1)OCO2)c1nn2c(c1Br)NC(c1cccs1)CC2C(F)(F)F` (stereo not drawn), the displacement stood at 4.9%. For the compound `Cc1cccc(NC(=O)CSc2nc3ccccc3s2)c1C`, the displacement is 4.5%. With `COc1cc(C(O)c2nc3ccccc3n2C(C)C)cc(OC)c1OC` (stereo not drawn), the displacement is -8.5%. For the compound `O=C(CCCN1C(=O)c2ccccc2C1=O)NCc1ccco1`, the displacement is -15.7%. With `CN(C)c1ccc(/C=C2\SC(N3CCN(C(c4ccccc4)c4ccccc4)CC3)=NC2=O)cc1`, the displacement was -15.6%.

With `COc1ccccc1N1C(=O)C2ON(c3ccccc3C)C(c3cccc(Br)c3)C2C1=O` (stereo not drawn), the displacement was 6.6%. Take `Cc1c(OCC(=O)C(C)(C)C)ccc2c1oc(=O)c1ccccc12`: the displacement was 10.3%.

On to `COc1ccc(C2Nc3ccccc3C(=O)N2Cc2ccco2)cc1Cn1nnc2ccccc21` (stereo not drawn), for which the displacement is -6.3%. As for `COc1ccc(/C=N/Nc2nc(N3CCCC3)nc(N3CCCC3)n2)cc1`, the displacement was 5.7%. On to `CCOc1cc(/C=C2/C(=O)ON=C2c2ccc(Cl)cc2)ccc1OC`, for which the displacement was 118%. In the case of `Clc1cccc(OCCCn2ccnc2)c1`, the displacement is -10.7%. Turning to `CC(=O)Nc1ccc(C(=O)NNC(=O)Cc2ccc(Cl)cc2)cc1`, the displacement is -4.6%.

`COc1ccc(-c2cc(=O)oc3cc(OC(C)=O)ccc23)cc1`: the displacement was -5.1%. Consider `O=c1c2ccccc2nc(/C=C/c2ccco2)n1Cc1ccccc1`, for which the displacement was -4.1%. For the compound `C=CCOc1cccc(/C=C/C(=O)c2ccc(Cl)cc2)c1`, the displacement was -12.6%. The value for `COc1ccccc1CN/C(C)=C(/C#N)C(=O)NCc1ccccc1` was -11.9%. On to `Cc1cc(Br)cc(/C=N/NC(=O)c2ccc3c(c2)OCO3)c1O`, for which the displacement came out at 12.6%. As to `COc1cccc(-n2c(/C=C/c3c(C)[nH]c4ccccc34)nc3ccccc3c2=O)c1`, the displacement was -46.6%. The value for `COc1cccc(N2C(=O)CC(SCC(=O)Nc3ccc(Cl)cc3)C2=O)c1` (stereo not drawn) was 11.8%; that for `COc1cc(NS(=O)(=O)c2ccccc2)c2ncccc2c1` was 1.1%; that for `CCOc1ccccc1N(CC(=O)Nc1ccc(OC)c(OC)c1)S(=O)(=O)c1ccccc1` was 12.6%. As for `COc1ccc(C2SC(C)C(=O)N2c2ccc(C)cc2)cc1` (stereo not drawn), the displacement is 5.1%. `COc1ccc(/C=C(/NC(=O)c2ccco2)C(=O)Nc2ccc3ccccc3c2)cc1`: the displacement amounted to 3.9%.

In the case of `Cc1ccccc1-c1nc(Cc2ccccc2)no1`, the displacement was -14.7%.

Take `COc1cc([N+](=O)[O-])cc(/C=C2/C(=O)NC(=O)N(c3ccc(C(C)C)cc3)C2=O)c1O`: the displacement was -10.9%. On to `CCCCOc1ccc(S(=O)(=O)NCc2cccnc2)cc1`, for which the displacement was determined as 2.9%. On to `CCOc1ccc(C(=O)Nc2ccc(OC)cc2)cc1[N+](=O)[O-]`, for which the displacement is 13.6%. Consider `Cc1ccc(Cl)cc1NC(=O)CSCC(=O)Nc1ccccc1`, for which the displacement was 5.8%. The result for `CCOC(=O)c1c(NC(=O)Cc2ccccc2)sc(C(=O)Nc2cc(C(F)(F)F)ccc2Cl)c1C` reads 8.1%; that for `Cc1ccc(Cl)cc1NS(=O)(=O)c1ccc(Cl)cc1`, -10.9%. Regarding `C=C(C)c1cccc(C(C)(C)NC(=O)Nc2ccccc2F)c1`, the displacement was -1.2%. On to `COc1ccc(C(=O)Nc2ccc(-c3nc4ccccc4s3)cc2)cc1Br`, for which the displacement is -3.3%. Turning to `COc1ccc(NC(=O)COc2c(C)cc(C)cc2C)c(OC)c1`, the displacement came to 12.7%. As for `COC(=O)C1=C(C)N(C)C(C)=C(C(=O)OC)C1c1cc(OC)c(OC)c(OC)c1`, the displacement worked out at 11.2%. As for `O=S(=O)(NCC(c1ccccc1)N1CCOCC1)c1ccccc1` (stereo not drawn), the displacement was -9.9%. In the case of `COc1cccc(N2C(=O)C(=O)/C(=C(\O)c3ccccc3)C2c2cccc([N+](=O)[O-])c2)c1` (stereo not drawn), the displacement was determined as 8.2%. As to `COc1ccc(NC(=O)C2Cc3ccccc3CN2C(=O)OCc2ccccc2)cc1` (stereo not drawn), the displacement is -3.3%. With `COc1ccc(N(CC(=O)Nc2ccccc2Cl)S(=O)(=O)c2ccccc2)cc1`, the displacement worked out at 4.9%.

As for `CCOC(=O)C(CC(C)C)NC(=O)CCN1C(=O)c2ccccc2C1=O` (stereo not drawn), the displacement stood at 9.4%. `O=c1[nH]c(SCc2ccccc2)nc2sc3c(c12)CCc1ccccc1-3`: the displacement was -10.4%. Take `Cc1ccc2oc(-c3ccc(NC(=O)c4ccc(C(C)(C)C)cc4)cc3O)nc2c1`: the displacement was 27.1%. The value for `COc1ccc(N(CC(=O)O)S(C)(=O)=O)c(OC)c1` was 7.3%; that for `COc1ccc(NC(=O)c2ccc(F)c3ccccc23)c(OC)c1` was 14.4%. As for `C/C(=N/N=C(\C)C1C(=O)c2ccccc2C1=O)c1cccs1`, the displacement was 5.3%. The value for `COc1ccc(CNS(=O)(=O)c2ccc(C)cc2)cc1` was 18.2%; that for `COc1cc(C(=O)Oc2ccc3c(C)cc(=O)oc3c2C(C)=O)cc(OC)c1OC` was 8.7%.

As for `CCC(=O)N1c2ccccc2NC2=C(C(=O)CC(C)(C)C2)C1c1ccc(-c2cccc([N+](=O)[O-])c2)o1` (stereo not drawn), the displacement was -4.5%. Take `O=C(NOC(=O)c1ccc(Br)cc1)c1ccc(Cl)cc1`: the displacement is -5%. As to `Cc1nnc(SCc2c(Cl)cccc2Cl)s1`, the displacement came out at 6.3%. With `CC(NC(=O)C12CC3CC(CC(C3)C1)C2)C1CC2CCC1C2` (stereo not drawn), the displacement is -8.2%.

As for `COc1cc(/C=N/n2c(C)nnc2C)ccc1O`, the displacement worked out at 11.9%. As to `Cc1ccc(-c2cc(NC(=O)c3ccccc3[N+](=O)[O-])n[nH]2)cc1`, the displacement came to 8.8%. Consider `C=CCc1c(C)nc2cc(-c3ccc(F)cc3)[nH]n2c1=O`, for which the displacement was -5.2%. Turning to `CC1CC(N(C(=O)c2ccco2)c2ccccc2)c2ccccc2N1C(=O)c1ccco1` (stereo not drawn), the displacement is -13.7%.

As for `CC(=O)c1c(-c2ccccc2)c2cc(C)ccc2[nH]c1=O`, the displacement was determined as 3.4%. Turning to `COC(=O)C(NC(=O)COc1ccc(Cl)cc1Cl)C(C)C` (stereo not drawn), the displacement was -13.5%.

As for `Cc1cc2ncn(CC(O)COc3cccc(Cl)c3)c2cc1C` (stereo not drawn), the displacement is -10.9%.

Turning to `Cc1cccc(N2CCN(C(=S)c3ccc(-c4ccccc4[N+](=O)[O-])o3)CC2)c1`, the displacement is 17.4%. The value for `COc1ccc(OC)c(/C=N/NC(=O)c2ccc[n+](CC(=O)c3ccccc3)c2)c1` was 39.7%. As for `C=CCNC(=O)/C(=C/c1ccc(C(C)C)cc1)NC(=O)c1ccccc1`, the displacement came to 8.9%.

For the compound `COc1ccc(N(C)S(=O)(=O)c2ccc(Cl)cc2)cc1`, the displacement is 1%. Consider `CSc1ccc(S(=O)(=O)N(CC(=O)Nc2cccc(Cl)c2Cl)c2ccc(C)cc2)cc1`, for which the displacement came to 4.2%. As to `O/N=C1/c2ccccc2/C(=N/O)C1c1ccccc1`, the displacement was -4.1%. The result for `Cc1ccc(Cl)cc1NC(=O)CN(c1ccccc1)S(=O)(=O)c1ccccc1[N+](=O)[O-]` reads 5.9%; that for `C/C(=N\N=C1\NC(=O)C(CC(=O)Nc2ccccc2[N+](=O)[O-])S1)c1ccc(Br)cc1` (stereo not drawn), -3.3%. As to `COc1cc(CNc2nc3ccccc3n2CCN2CCCCC2)cc(OC)c1OC`, the displacement was -14.2%. Regarding `O=c1cnn(Cc2ccccc2)c(=O)n1Cc1ccccc1`, the displacement was -4.3%. As for `CC(Sc1nc2ccccc2n1C)C(=O)NC(c1ccccc1)c1ccccc1` (stereo not drawn), the displacement was -5.3%. `O=C1C2ON(c3ccc(Cl)cc3)C(c3cccs3)C2C(=O)N1c1cccc(C(F)(F)F)c1` (stereo not drawn): the displacement was -18.1%. `COc1ccc(/C=N/n2cnnc2)cc1Br`: the displacement turned out to be 15.5%. `O=c1oc(-c2ccco2)nc2cc(Cl)ccc12`: the displacement is 56%. Turning to `O=C(NCCO)C(=O)Nc1ccc(F)cc1`, the displacement was 12.1%. For the compound `COc1ccc(C)cc1NC(=O)Nc1ccccc1`, the displacement was 1.3%.
